From PubChem BioAssay AID1460 (National Center for Advancing Translational Sciences (NCATS), 2008)
Several values for one entry are separate records, joined by “and”; a condition that tells them apart may be missing. Equal entries are not always repeated. The campaign covered roughly 270,000 compounds. About 5,800 (2.1%) were called active. The inconclusive results got no clear call from the source; some entries with a clear call stand among them for comparison. The call rests on the fitted dose curve; in most records, active means well fitted inhibition curve with a large enough effect; inconclusive means small, poorly fitted or top-dose-only effect; inactive means flat fitted curve, though single readings scatter. A potency beside an inconclusive call is a rough fit, not a confirmed value.

Target: Microtubule-associated protein tau (Homo sapiens) (UniProt P10636)
Experiment: qHTS for Inhibitors of Tau Fibril Formation, Thioflavin T Binding; further: nearly all actives have a fitted effect of over 55% in size
Details: recombinant tau K18 P301L (four-repeat tau fragment), heparin-induced fibrillization, ThT fluorescence; series mostly up to 57.4 µM
In short: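 In this qHTS, human K18 P301L tau is incubated with compound and heparin for 6 hr at 37 C, and Thioflavin T fluorescence then reports fibril load.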
Potency means the concentration at half of the fitted maximal effect; tags describe the fitted curve by direction and shape.

UniProt P10636, sequence (P10636 whole entry, looked up): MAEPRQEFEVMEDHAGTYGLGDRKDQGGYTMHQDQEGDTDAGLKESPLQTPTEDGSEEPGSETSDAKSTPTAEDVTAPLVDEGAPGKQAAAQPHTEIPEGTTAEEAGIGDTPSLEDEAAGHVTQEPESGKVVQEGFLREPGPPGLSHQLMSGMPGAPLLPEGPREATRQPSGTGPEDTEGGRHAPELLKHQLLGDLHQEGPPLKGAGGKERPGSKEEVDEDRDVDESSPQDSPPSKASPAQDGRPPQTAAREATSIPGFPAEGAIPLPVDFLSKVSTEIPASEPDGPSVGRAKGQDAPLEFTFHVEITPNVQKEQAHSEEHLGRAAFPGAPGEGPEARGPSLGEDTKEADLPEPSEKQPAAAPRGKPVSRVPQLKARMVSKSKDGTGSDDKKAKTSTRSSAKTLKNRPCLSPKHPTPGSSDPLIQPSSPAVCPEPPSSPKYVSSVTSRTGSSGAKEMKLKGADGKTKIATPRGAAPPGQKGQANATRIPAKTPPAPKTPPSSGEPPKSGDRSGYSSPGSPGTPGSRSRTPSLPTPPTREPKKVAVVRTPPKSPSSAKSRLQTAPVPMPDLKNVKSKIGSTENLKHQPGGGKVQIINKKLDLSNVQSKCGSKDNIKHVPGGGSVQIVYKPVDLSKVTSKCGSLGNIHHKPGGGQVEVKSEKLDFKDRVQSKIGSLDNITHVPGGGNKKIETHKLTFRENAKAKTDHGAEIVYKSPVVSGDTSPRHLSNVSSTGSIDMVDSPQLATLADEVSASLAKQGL

Row | Compound | Potency
1 | COc1ccc(-c2nnc(SCC#CCO)o2)cc1OC | inconclusive: 31.6 µM [inhibitor, partial curve, poor fit]
2 | Cc1cc(=O)oc2c(O)c(O)ccc12 | inconclusive: 7.94 µM [inhibitor, partial curve]
3 | COC(=O)c1cccc(COC(=O)c2ccc(N(C)C)cc2)c1 | inconclusive: 22.4 µM [inhibitor, partial curve]
4 | C/C(=N\NC(=O)CC#N)c1cc2ccccc2oc1=O | inactive
5 | CC1CCC(C(C)C)C(OC(=O)C[n+]2cc(-c3ccc(Cl)cc3)n3c2CCCCC3)C1 (stereo not given) | inconclusive: 20 µM [inhibitor, single point]
6 | O=C(OCc1cc(=O)n2c(n1)sc1ccccc12)c1cccc(O)c1 | inconclusive: 1.78 µM [inhibitor, partial curve]
7 | CSc1nc2sc3c(c2c(=O)n1C)CCCC3 | inactive
8 | CCCCC#Cc1ccccc1CC(=O)Nc1ccccc1 | inactive and inconclusive: 35.5 µM [inhibitor, single point]
9 | Cc1ccc(O)c(C2=Nc3ccccc3N=C(c3ccc([N+](=O)[O-])cc3)C2)c1 | inconclusive: 20 µM [inhibitor, partial curve]
10 | CN1CC2(Cc3c1ccc1ccccc31)C(=O)OC(C)(C)OC2=O | inconclusive: 22.4 µM [inhibitor, partial curve]
11 | Brc1ccc(/C=N/Nc2ccccn2)cc1 | inactive
12 | COc1ccc(/C=N/NC(=O)C(=O)/C=C2\NC3(CCCC3)Cc3ccccc32)cc1 | inconclusive: 11.2 µM [inhibitor, partial curve]
13 | Cc1ccc(-c2[nH]c3ccccc3c2SCCN)cc1 | inconclusive: 14.1 µM [inhibitor, partial curve]
14 | COc1ccc(-c2csc(CCN3N=C(C)CC3=O)n2)cc1 | inconclusive: 14.1 µM [inhibitor, partial curve]
15 | Clc1ccccc1C1SCC2Nc3ccccc3CN21 (stereo not given) | inconclusive: 25.1 µM [inhibitor, partial curve, poor fit]
16 | Cc1c(Cl)cccc1NC(=O)c1nc(C)n(-c2cc(OC(C)C)c(Cl)cc2Cl)n1 | inconclusive: 15.8 µM [inhibitor, partial curve]
17 | Cc1ccc2nc(Cl)c3cc(C(=O)N(C)C4CCCCC4)sc3c2c1 | inactive
18 | COC(=O)c1c(-c2ccc(C)cc2)csc1NC(=O)C1CC=CCC1C(=O)O (stereo not given) | inconclusive: 10 µM [inhibitor, partial curve, poor fit]
19 | CCN1C(=O)CSc2ccc(C(=O)NCc3ccccc3OC)cc21 | inactive
20 | CCOC(=O)N1CCN(c2nc(-c3cccc(OC)c3)cc(C(F)(F)F)n2)CC1 | inconclusive: 20 µM [inhibitor, single point]
21 | Cc1ccc[n+](-c2[nH]c(=O)sc2/C=N/NC(=O)c2ccccc2[O-])c1 | inconclusive: 14.1 µM [inhibitor, partial curve, poor fit]
22 | O=C(NCCc1ccccc1)C1CCN(c2nc3ccccc3o2)CC1 | inconclusive: 35.5 µM [inhibitor, partial curve]
23 | CCOc1ccc(NC(=O)COc2ccc(C(=O)NCCc3ccccc3)cc2)cc1 | inconclusive: 0.794 µM [inhibitor, full curve]
24 | CN(C)CCOCCOc1ccc(Cl)cc1Br | inactive

Row | Compound | Potency
25 | O=C(CSc1nnc(-c2ccc(O)cc2)n1Cc1ccccc1)NNC(=O)c1ccc(Br)cc1 | inconclusive: 25.1 µM [activator, single point]
26 | O=C(Nc1ccccc1)Nc1cccc2nsnc12 | inconclusive: 7.08 µM [inhibitor, single point]
27 | CCOC(=O)CN1C(=O)C(O)(CC(=O)c2ccc3c(c2)CCCC3)c2ccccc21 (stereo not given) | inconclusive: 39.8 µM [inhibitor, single point]
28 | CC(C)CN(c1ccccc1)S(=O)(=O)c1nnc(NC(=O)c2ccco2)s1 | inconclusive: 2.24 µM [inhibitor, full curve]
29 | Cn1nnc2cc(NC(=O)NCc3ccc4c(c3)OCO4)ccc21 | inconclusive: 25.1 µM [inhibitor, single point]
30 | COc1ccc(C)cc1NC(=O)CN1CCN(c2ccc(F)cc2)CC1 | inconclusive: 22.4 µM [inhibitor, partial curve, poor fit]
31 | Cc1ccccc1Oc1ccc(NC(=O)C2CC=CCC2C(=O)O)cc1 (stereo not given) | inactive
32 | COc1ccc(N2C(=O)C(CC(N)=O)N(NC(=O)c3cccc(OC)c3)C2=S)cc1 (stereo not given) | inactive
33 | Cc1cc(C)n(-c2nc(SCC(=O)NCC3CCCO3)c3c4c(sc3n2)CCCC4)n1 (stereo not given) | inconclusive: 28.2 µM [inhibitor, single point]
34 | O=C1Nc2ccccc2/C1=C/c1cccnc1 | inconclusive: 17.8 µM [inhibitor, partial curve]
35 | Oc1ccc2ccccc2c1C=Nc1ccc(Cl)cn1 | inactive
36 | CC1(C)Cc2nc3sc(C(=O)NCCCO)c(N)c3cc2CO1 | inactive
37 | Cc1cc(C)c2c(c1)[C@@H]1C=CC[C@@H]1[C@H](c1ccc(S(=O)(=O)N3CCOCC3)cc1)N2 | inactive
38 | CCCCN1CC(c2nc3ccccc3n2CCCCOc2c(C)cccc2C)CC1=O (stereo not given) | inactive
39 | CCOC(=O)N1CCN(c2ncnc3c2[nH]c2ccc(OC)cc23)CC1 | active: 8.91 µM
40 | CCOc1ccc(-n2c(=O)c3c4c(sc3n(Cc3cccc(Cl)c3)c2=O)CCCC4)cc1 | inactive
41 | Cc1nc2c(=O)[nH]c(=S)n(C)c2nc1C | inconclusive: 39.8 µM [inhibitor, single point]
42 | Cc1cccc(-c2cc3nc4c(c(NCc5ccco5)n3n2)CCCC4)c1 | inconclusive: 15.8 µM [inhibitor, partial curve]
43 | CCNc1nc(NCC)nc(N(n2cnnc2)S(=O)(=O)c2ccc(C)cc2)n1 | inactive
44 | CS(=O)c1ccccc1-c1nc(-c2cccc(Cl)c2)no1 (stereo not given) | inactive
45 | COc1ccc(NC(=O)c2ccc3snnc3c2)cc1OC | inconclusive: 22.4 µM [inhibitor, partial curve, poor fit]
46 | COc1ccc(-c2cn3c(C)c(C(=O)NC(C)C)sc3n2)cc1 | inconclusive: 0.794 µM [inhibitor, full curve, poor fit]
47 | CC(C)Oc1cccc(C(=O)NC(=S)Nc2ccc(N3CCN(C)CC3)cc2)c1 | inconclusive: 3.98 µM [inhibitor, partial curve, poor fit]
48 | Cc1ccc(NC(=O)Nc2nnc(N3CCCCC3)s2)c(C)c1 | inactive

Row | Compound | Potency
49 | CCOC(=O)C1CCN(C(=O)COc2ccc(Br)cc2)CC1 | inactive
50 | CCN(C(=O)c1sc2nc3n(c(=O)c2c1C)CCCCC3)c1ccccc1F | inconclusive: 20 µM [inhibitor, partial curve]
51 | CCOC(=O)c1cnn(-c2c(Cc3ccccc3)c(C)nc3c(-c4ccccc4)c(C)nn23)c1N | inactive
52 | CC1=C(C(=O)Nc2ccccc2)C(c2ccccc2[N+](=O)[O-])NC(=O)N1 (stereo not given) | active: 25.1 µM
53 | CCOc1ccc(-c2nnc(Nc3ccc(OC)c(C(=O)N4CCCCC4)c3)c3ccccc23)cc1 | inconclusive: 17.8 µM [inhibitor, partial curve]
54 | COc1ccc(N2CCN(C(=O)c3ccc(NS(=O)(=O)c4ccc(F)c(F)c4)cc3)CC2)cc1 | inconclusive: 25.1 µM [inhibitor, single point]
55 | Cc1cccc(OCCCC(=O)Nc2ccc3c(c2)OCO3)c1 | inconclusive: 17.8 µM [inhibitor, partial curve]
56 | O=C(/C=C/c1ccc(Cl)c([N+](=O)[O-])c1)Nc1cccnc1 | inconclusive: 15.8 µM [inhibitor, partial curve]
57 | O=C(CCSCc1ccccc1F)N1CCN(c2ccc(F)cc2)CC1 | inconclusive: 4.47 µM [inhibitor, partial curve]
58 | Cn1c2c(c(=O)[nH]c1=O)C(c1ccc(O)cc1)C1=C(N2)c2ccccc2C1=O (stereo not given) | active: 22.4 µM
59 | CC(=O)OCC1OC(C#CC2=CCCCC2)C=CC1OC(C)=O (stereo not given) | inconclusive: 3.16 µM [inhibitor, partial curve]
60 | CCC1S/C(=N/N=C/c2cccs2)NC1=O (stereo not given) | inactive
61 | O=C(C1=C[C@H](c2ccc(C(F)(F)F)cc2)C[C@H](OCc2ccc(CO)cc2)O1)N1CCN(Cc2ccc3c(c2)OCO3)CC1 | inconclusive: 25.1 µM [inhibitor, single point]
62 | Cc1cc(C)cc(C(=O)Nc2ccc(-c3cn4cccnc4n3)cc2)c1 | inconclusive: 0.199 µM [inhibitor, full curve, poor fit]
63 | Cc1cc(C(=O)Nc2ccc(OCc3ccccc3)cc2)c(C)o1 | inconclusive: 4.47 µM [inhibitor, partial curve]
64 | CCN(CC)c1ccc(/C=N/NC(=O)CNC(=O)c2ccccn2)cc1 | inconclusive: 11.2 µM [inhibitor, partial curve]
65 | COc1ccc2nc(N=Nc3ccc(N(C)C)cc3)sc2c1 | active: 0.891 µM
66 | CCCSc1nsc(NC(=O)CC)n1 | inconclusive: 5.01 µM [inhibitor, partial curve]
67 | Cc1cc(C)c(S(=O)(=O)NCc2ccc3c(c2)cc(C)n3C)c(C)c1 | inconclusive: 28.2 µM [inhibitor, single point]
68 | N#CC1(c2ccccc2)CCCN1C(=O)c1ccccc1Br (stereo not given) | inactive
69 | COc1ccc(C2NCCc3c2[nH]c2ccccc32)cc1COc1ccc(F)cc1 (stereo not given) | inconclusive: 22.4 µM [inhibitor, partial curve]
70 | CN(C)CCCNc1nc2sc3c(c2c(=O)n1CCc1ccccc1)CCCCC3 | inactive
